According to PubChem BioAssay (NCATS):
“And” between values parts separate entries of the source, which are not always exact repeats. Equal entries are not always repeated. The inconclusive results got no clear call from the source; some entries with a clear call stand among them for comparison. Potencies of inconclusive entries are doubtful fits and often do not repeat. For part of these data: “Side channel” marks fits to a control or component signal instead of the main read-out. The source made the active and inactive calls. Unless noted, calls follow the shape of the dose curve; as a rule, active = well fitted curve in the direction sought with a large enough effect; inconclusive = small, poorly fitted or top-dose-only effect, or another doubt; inactive = no such curve, though single readings can be large; an effect the other way counts as inactive or inconclusive.

What was measured:
[1] = target: T1, Tyrosine-protein phosphatase non-receptor type substrate 1 (Homo sapiens) + Leukocyte surface antigen CD47 (Homo sapiens) (UniProt P78324+Q08722); experiment: CD47-SIRPalpha protein protein interaction - HTRF assay qHTS validation (AID 1347058; active = well fitted curve in the direction sought with a large enough effect in the signal ratio, not every such curve was filed as active; inconclusive = small, poorly fitted or top-dose-only effect, or effect the other way, or a change in a side signal; inactive = no such curve, though single readings can be large or run the other way; the % refers to the signal ratio); conditions: TR-FRET HTRF CD47-His / biotin-SIRPalpha binding, ratio 665/615; series mostly up to 38.3 µM
T1 sequence (P78324 whole entry, looked up, the tested form may be a part): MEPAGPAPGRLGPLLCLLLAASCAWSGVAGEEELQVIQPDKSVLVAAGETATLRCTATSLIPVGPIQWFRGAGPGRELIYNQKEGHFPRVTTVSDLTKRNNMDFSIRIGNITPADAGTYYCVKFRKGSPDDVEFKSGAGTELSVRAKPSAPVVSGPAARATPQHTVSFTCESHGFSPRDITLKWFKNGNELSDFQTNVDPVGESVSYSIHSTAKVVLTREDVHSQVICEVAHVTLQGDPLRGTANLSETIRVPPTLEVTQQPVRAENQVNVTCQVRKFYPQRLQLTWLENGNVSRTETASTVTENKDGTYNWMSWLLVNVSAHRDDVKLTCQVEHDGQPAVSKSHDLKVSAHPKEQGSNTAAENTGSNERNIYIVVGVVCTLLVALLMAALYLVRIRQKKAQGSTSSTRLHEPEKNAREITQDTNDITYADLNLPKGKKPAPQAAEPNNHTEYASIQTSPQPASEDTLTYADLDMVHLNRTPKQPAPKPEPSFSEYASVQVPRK
T1 sequence (Q08722 whole entry, looked up, the tested form may be a part): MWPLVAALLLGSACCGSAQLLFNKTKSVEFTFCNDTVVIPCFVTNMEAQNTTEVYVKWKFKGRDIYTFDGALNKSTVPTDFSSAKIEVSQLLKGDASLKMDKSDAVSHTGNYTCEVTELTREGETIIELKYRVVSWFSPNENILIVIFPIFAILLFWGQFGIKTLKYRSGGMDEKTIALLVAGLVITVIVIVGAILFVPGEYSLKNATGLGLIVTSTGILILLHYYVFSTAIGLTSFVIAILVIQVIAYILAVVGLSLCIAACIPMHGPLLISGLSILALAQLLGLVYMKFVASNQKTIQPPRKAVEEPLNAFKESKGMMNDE
How it was run: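 TR-FRET read (Ch1/Ch2 ratio) of soluble extracellular CD47 and Avi-biotinylated SIRPalpha domains in PBS pH 7.4 with 0.05% IGEPAL; 7-point compound titration. Sequential 30 min room-temperature steps; non-biotinylated SIRPalpha as control inhibitor.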

[2] = qHTS of pediatric cancer cell lines to identify multiple opportunities for drug repurposing: Primary screen for DAOY cells (AID 1347090); conditions: DAOY medulloblastoma viability, CellTiter-Glo luminescence, 48 h; activity change, negative = cytotoxic: at 46 µM (top of the series) unless noted; also: nearly all actives have a fitted effect of over 55% in size
How it was run: (§1)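 Viability measured as metabolically active cells via CellTiter-Glo luminescence following 48 hours of compound exposure, 11-point dilutions in confirmatory testing. 500-1,000 cells/well plated 5 hours before dosing; controls were DMSO and 2.3 µM bortezomib.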

[3] = qHTS of pediatric cancer cell lines to identify multiple opportunities for drug repurposing: Primary screen for SJ-GBM2 cells (AID 1347091); conditions: SJ-GBM2 viability, CellTiter-Glo luminescence, 48 h; series mostly up to 46 µM
How it was run: as §1

[4] = qHTS of pediatric cancer cell lines to identify multiple opportunities for drug repurposing: Primary screen for A673 cells (AID 1347092); conditions: A673 Ewing sarcoma viability, CellTiter-Glo ATP luminescence, 48 h; activity change, negative = cytotoxic: at 46 µM (top of the series); also: nearly all actives have a fitted effect of over 45% in size
How it was run: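 Cells are plated, rested 5 h, dosed by pintool, incubated 48 h, then lysed with CellTiter-Glo and read by luminescence. DMSO is the neutral control; bortezomib at 2.3 uM final is the positive control.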

[5] = qHTS of pediatric cancer cell lines to identify multiple opportunities for drug repurposing: Primary screen for BT-37 cells (AID 1347094); conditions: BT-37 viability, CellTiter-Glo luminescence, 48 h; series mostly up to 57.3 µM
How it was run: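 Cells plated at 500-1,000/well in growth medium, compounds added after 5 h. MIPE tested at 11 points (from 0.78 nM), NPC at 8 points (from 0.59 nM). CellTiter-Glo luminescence after 48 h; concentration-response curves from primary screen.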

[6] = NS1 protein of Zika virus - qHTS assay to identify small molecule inhibitors in human HEK 293 cells (AID 1347053); conditions: HEK293 ZIKV MR766 infection, NS1 TR-FRET, 24 h; series mostly up to 46.1 µM; also: nearly all actives have a fitted effect of over 55% in size
How it was run: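 Following 20 h seeding, HEK 293 cells took compound, then 1 h later ZIKV MR766 (MOI = 0.5). Incubation ran 24 h at 37 C before TR-FRET detection of NS1; a drop in signal indicates inhibition.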

[7] = qHTS of pediatric cancer cell lines to identify multiple opportunities for drug repurposing: Primary screen for SK-N-MC cells (AID 1347093); conditions: SK-N-MC viability, CellTiter-Glo luminescence, 48 h; activity change, negative = cytotoxic: at 46 µM (top of the series)
How it was run: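 Metabolically active cells were quantified by ATP-dependent luminescence (CellTiter-Glo, 15 min at room temperature) following 48 h treatment. Cells had been plated at 500-1,000 per well and settled for 5 h beforehand.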

[8] = target: T1, Tyrosine-protein phosphatase non-receptor type substrate 1 (Homo sapiens) + Leukocyte surface antigen CD47 (Homo sapiens); experiment: CD47-SIRPalpha protein protein interaction - Alpha assay qHTS validation (AID 1347059); conditions: AlphaScreen CD47-His/biotin-SIRPalpha binding, LOPAC; series mostly up to 38.3 µM;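 also: bead proximity luminescence from CD47 binding SIRPalpha after compound preincubation with SIRPalpha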
How it was run: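 Biotinylated Avi-tagged SIRPalpha (25 nM) preincubated 30 min with compound, then His-tagged CD47 (12.5 nM) added 30 min; AlphaScreen with Ni-NTA acceptor and streptavidin donor beads. PBS pH 7.4, 0.05% IGEPAL, room temperature; 7-point titrations.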

[9] = target: T1, Tyrosine-protein phosphatase non-receptor type substrate 1 (Homo sapiens) + Leukocyte surface antigen CD47 (Homo sapiens); experiment: CD47-SIRPalpha protein protein interaction - LANCE assay qHTS validation (AID 1347057; active = well fitted curve in the direction sought with a large enough effect in the signal ratio, with a control signal flat, not every such curve was filed as active; inconclusive = small, poorly fitted or top-dose-only effect, or effect the other way, or a change in a side signal; inactive = no such curve, though single readings can be large or run the other way; the % refers to the signal ratio); conditions: Recombinant CD47-His / biotin-SIRPalpha, TR-FRET ratio; series mostly up to 38.3 µM
How it was run: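 First, His-tagged CD47 and Eu-labelled anti-His antibody met the compound for 30 min; next, site-specifically biotinylated SIRPalpha was added for 30 min; finally streptavidin-APC was added before reading the TR-FRET ratio.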
Potency is read from the fitted curve at half-maximal effect; tags tell the direction and shape of the fitted curve.

Cc1cccc(-c2[nH]c(C(C)(C)C)nc2-c2ccc3nccnc3c2)n1
Potency [1]: inconclusive: 14.7 µM [rising, single point] | Potency [2]: inconclusive: 29.6 µM [cytotoxic, single point] | Potency [3]: active: 8.33 µM | Potency [4]: active: 14.8 µM | Potency [5]: active: 19.3 µM

C[C@@H]1CCO[C@H]2Cn3cc(C(=O)NCc4ccc(F)cc4F)c(=O)c(O)c3C(=O)N12
Potency [6]: inconclusive: 37.2 µM [inhibitor, partial curve, poor fit] | Potency [3]: inconclusive: 1.66 µM [cytotoxic, partial curve, poor fit] | Potency [5]: inconclusive: 34.3 µM [cytotoxic, single point]

C=CCc1cc(OC)c(O)c(C(=O)NCCO)c1
Potency [6]: inconclusive: 29.6 µM [inhibitor, single point] | Potency [7]: inconclusive: 33.5 µM [cytotoxic, partial curve, poor fit]

C[C@H]1c2cccc(O)c2C(O)=C2C(=O)[C@]3(O)C(O)=C(C(N)=O)C(=O)[C@@H](N(C)C)[C@@H]3[C@@H](O)[C@@H]21
Potency [1]: inactive | Potency [8]: inconclusive: 23.3 µM [inhibitor, single point] | Potency [3]: inactive | Potency [5]: inconclusive: 27.6 µM [cytotoxic, single point] and inconclusive: 34.3 µM [cytotoxic, single point]

O=C(C1CCCCC1)N1CC(=O)N2CCc3ccccc3C2C1 (stereo not drawn)
Potency [1]: inactive | Potency [2]: inconclusive: 37.2 µM [cytotoxic, single point] | Potency [7]: inconclusive: 5.9 µM [cytotoxic, full curve, poor fit]

C[C@]12CC[C@@H]3c4ccc(O)cc4CC[C@H]3[C@H]1C[C@@H](O)[C@H]2O
Potency [6]: inactive | Potency [7]: inconclusive: 29.6 µM [cytotoxic, single point]

Cc1cccc(Nc2ccncc2S(=O)(=O)NC(=O)NC(C)C)c1
Potency [6]: inactive | Potency [4]: inactive

O=c1c(O)c(-c2cc(O)c(O)c(O)c2)oc2cc(O)cc(O)c12
Potency [1]: inconclusive: 18.5 µM [rising, partial curve] | Potency [4]: inconclusive: 29.6 µM [cytotoxic, single point] | Potency [7]: inconclusive: 23.5 µM [cytotoxic, partial curve, poor fit] | Potency [5]: inconclusive: 19.3 µM [cytotoxic, partial curve, poor fit]

O=P(O)(O)C(O)(Cn1ccnc1)P(=O)(O)O
Potency [6]: inconclusive: 18.2 µM [inhibitor, single point] | Potency [7]: inactive

O=c1ccc2ccc(O)c(O)c2o1
Potency [1]: inconclusive: 13.1 µM [side channel, falling, single point] | Potency [3]: inactive | Potency [7]: inconclusive: 37.2 µM [cytotoxic, single point]

CN1CCN(c2cccc(Nc3nc4c(-c5ccc(S(C)(=O)=O)cc5)cccn4n3)c2)CC1
Potency [6]: inconclusive: 37.2 µM [inhibitor, single point] | Potency [3]: inconclusive: 14.8 µM [cytotoxic, partial curve] | Potency [5]: inconclusive: 24.3 µM [cytotoxic, partial curve]

CC1(C)C(=O)N(CCN2CCC(C(=O)c3ccc(F)cc3)CC2)c2ccccc21
Potency [1]: inconclusive: 26.1 µM [side channel, falling, single point] | Potency [2]: inconclusive: 18.7 µM [cytotoxic, partial curve, poor fit]

N#CC(c1ccnc(NCCc2cccnc2)n1)c1nc2ccccc2s1 (stereo not drawn)
Potency [6]: inconclusive: 33.2 µM [inhibitor, single point] | Potency [5]: active: 24.3 µM

CCC(=O)OCC(=O)[C@@]1(OC(=O)CC)[C@@H](C)C[C@@H]2[C@H]3CCC4=CC(=O)C=C[C@]4(C)[C@@]3(F)[C@@H](O)C[C@@]21C
Potency [6]: inconclusive: 37.2 µM [inhibitor, single point] | Potency [3]: inconclusive: 23.5 µM [cytotoxic, partial curve, poor fit] | Potency [7]: active: 0.0372 µM | Potency [5]: inconclusive: 6.85 µM [cytotoxic, full curve]

CNS(=O)(=O)Cc1ccc2[nH]cc(CCN(C)C)c2c1
Potency [6]: inactive | Potency [7]: inactive | Potency [5]: inactive

O=C1c2ccccc2-c2n[nH]c3cccc1c23
Potency [9]: inconclusive: 18.5 µM [side channel, falling, single point] | Potency [1]: inconclusive: 6.56 µM [side channel, falling, partial curve] | Potency [2]: inconclusive: 23.5 µM [cytotoxic, partial curve, poor fit] | Potency [7]: active: 2.64 µM
